Among all 310,000 compounds or so, about 2,200 (0.71%) showed an effect of 50% or more. The effect is printed as a negative number. Some of the results follow.
The molecules below were run against human ether-à-go-go-related gene (hERG) potassium channel (human, UniProt Q12809) (assay: primary screen, population patch clamp on CHO cells stably expressing hERG).
Chain of human ether-à-go-go-related gene (hERG) potassium channel (Q12809 whole entry, looked up): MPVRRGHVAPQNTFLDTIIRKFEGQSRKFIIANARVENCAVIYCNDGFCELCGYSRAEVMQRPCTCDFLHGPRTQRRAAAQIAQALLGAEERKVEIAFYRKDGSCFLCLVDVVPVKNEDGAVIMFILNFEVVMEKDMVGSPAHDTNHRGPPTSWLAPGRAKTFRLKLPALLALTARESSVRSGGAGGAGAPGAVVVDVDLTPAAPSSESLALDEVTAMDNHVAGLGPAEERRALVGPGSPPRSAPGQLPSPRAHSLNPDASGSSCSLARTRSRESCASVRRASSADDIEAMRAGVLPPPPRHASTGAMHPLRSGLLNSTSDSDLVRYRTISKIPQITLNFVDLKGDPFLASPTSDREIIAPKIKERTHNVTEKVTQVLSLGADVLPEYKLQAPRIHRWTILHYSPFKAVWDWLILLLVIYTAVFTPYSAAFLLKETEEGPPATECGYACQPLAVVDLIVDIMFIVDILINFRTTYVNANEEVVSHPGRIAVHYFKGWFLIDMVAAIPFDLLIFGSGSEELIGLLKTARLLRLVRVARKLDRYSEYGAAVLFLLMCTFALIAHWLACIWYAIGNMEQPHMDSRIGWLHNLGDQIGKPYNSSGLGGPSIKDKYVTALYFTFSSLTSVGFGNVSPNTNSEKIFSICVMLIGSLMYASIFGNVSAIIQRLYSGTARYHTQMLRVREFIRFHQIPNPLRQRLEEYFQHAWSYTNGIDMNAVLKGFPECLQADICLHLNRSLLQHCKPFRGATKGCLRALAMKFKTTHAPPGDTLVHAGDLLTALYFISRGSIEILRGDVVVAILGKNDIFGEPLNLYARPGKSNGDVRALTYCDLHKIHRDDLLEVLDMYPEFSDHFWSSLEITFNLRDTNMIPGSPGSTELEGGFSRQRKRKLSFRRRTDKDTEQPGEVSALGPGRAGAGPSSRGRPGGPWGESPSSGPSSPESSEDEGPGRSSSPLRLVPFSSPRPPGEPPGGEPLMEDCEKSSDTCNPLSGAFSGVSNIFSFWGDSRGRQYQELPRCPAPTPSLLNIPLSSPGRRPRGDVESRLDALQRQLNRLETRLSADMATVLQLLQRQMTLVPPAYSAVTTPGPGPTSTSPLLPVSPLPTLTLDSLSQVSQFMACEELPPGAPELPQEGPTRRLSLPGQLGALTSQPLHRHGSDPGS

| Structure (SMILES) | hERG current change (%, negative = inhibition) at 1uM |
| --- | --- |
| O=C(O)c1ccc2c(=O)n3c(nc2c1)/C(=C/c1ccc(Cl)c([N+](=O)[O-])c1)CC3 | 14.2% |
| COc1cc(CC(=O)Nc2ncc(C)s2)cc(OC)c1OC | 16.8% |
| CCOC(=O)c1cc2c(ccn2C)n1CC(=O)N1CCN(c2ccccc2)CC1 | 1.85% |
| CC(C)CN(CC(C)C)C(=O)COc1ccccc1C(N)=O | 9.29% |
| COc1ccc(CNS(=O)(=O)NCc2ccccc2F)cc1 | 13.8% |
| Cc1c(Br)c([N+](=O)[O-])nn1C(C)C(=O)NCC1CCCO1 (centres unmarked) | -9.96% |
| COc1ccc(OC)c(C2NC(=O)NC(C)=C2C(=O)Nc2ccc(C)cc2)c1 (centres unmarked) | -5.03% |
| CCOc1ccc(C(CCc2ccccc2)NC(=O)c2ccccc2)cc1OCC (centres unmarked) | 2.85% |
| CCCOC(=O)CN1C(=O)c2ccccc2C1=O | 8.69% |
| O=[N+]([O-])c1cc(C(F)(F)F)ccc1NC1CCN(Cc2ccccc2)C1 (centres unmarked) | -1.39% |
| O=C(NNC(=O)C1CCCN(S(=O)(=O)c2cccc(F)c2)C1)C1CC1 (centres unmarked) | 39.6% |
| C=CCSc1ncccc1C(=O)NCCc1ccc(Cl)cc1 | 14.5% |
| COc1ccc(N2C(=O)/C(=C/c3ccco3)C(=O)NC2=S)cc1 | 6.72% |
| C=CCC(Nc1ccccc1)c1ccc(OC)c(OC)c1 (centres unmarked) | 9.7% |
| COc1cc(/C=N/n2c(C)nc3ccccc3c2=O)cc(OC)c1O | 14% |
| NNC(=O)CNC(c1ccccc1)c1cc(Cl)ccc1NC(=O)c1ccccc1 (centres unmarked) | 16.8% |
| COc1cc2sc(C)nc2cc1C | 18.5% |
| CC1CCCC(NC(=O)COC(=O)[C@@H]2CC(O)CN2S(=O)(=O)c2ccc3c(c2)OCCO3)C1C (some centres unmarked) | 7.99% |
| O=S(=O)(c1ccc(NCc2ccccc2)cc1)N1CCOCC1 | 20.8% |
| CC(C)CC(=O)Nc1c(C(=O)N2CCN(Cc3ccccc3)CC2)oc2ccccc12 | 7.06% |
| Cc1cc(C)c(C#N)c(SCCN2CCCCC2)n1 | 6.95% |
| COc1cccc(N2C(=NC(=O)CCC3CCCC3)SC3CS(=O)(=O)CC32)c1 (centres unmarked) | 8.16% |

| Structure (SMILES) | hERG current change (%, negative = inhibition) at 1uM |
| --- | --- |
| COc1ccc(S(=O)(=O)N2CCOCC2)cc1NC(=O)CSc1ncnc2ccccc12 | 15.7% |
| O=C(CNS(=O)(=O)c1ccc(Br)s1)NCCc1ccc(Cl)cc1 | 16.1% |
| O=C1/C(=C/c2cccc3ccccc23)CCCc2ccccc21 | 17.6% |
| CN(C)C(=O)CSc1nc(-c2cccs2)c(-c2cccs2)[nH]1 | 9.02% |
| CCC(C)N(C(=O)c1csnn1)C(C(=O)NC1CCCC1)c1ccccc1F (centres unmarked) | 2.84% |
| COc1ccc(S(=O)(=O)N2CCCCC2)cc1NC(=O)C1CC(=O)N(Cc2ccccc2)C1 (centres unmarked) | 5.03% |
| CCN1CCCC1Cn1cnc2c([nH]c3ccc(Cl)cc32)c1=O (centres unmarked) | -69.4% |
| CCS(=O)(=O)N1CCN(S(=O)(=O)c2ccc(S(=O)(=O)NC3CC3)cc2)CC1 | 10.9% |
| O=C(COC(=O)c1ccc2ncsc2c1)NCc1ccc(F)cc1 | 4.82% |
| CN1C(C(=O)NCc2cccc(Br)c2)CC2Cn3c(nc4ccccc43)C21 (centres unmarked) | -25.7% |
| CC(C)C(NC(=O)c1ccco1)C(=O)OCC(=O)Nc1ccc(C(N)=O)cc1 (centres unmarked) | 12.9% |
| C=CCn1c(SCCOc2ccccc2)nnc1C(C)NC(=O)c1ccccc1 (centres unmarked) | 12.9% |
| Cc1ccc(S(=O)(=O)N2CCC(=O)N(CCOC(=O)Nc3ccc(C)c(C)c3)CC2)cc1 | -7.3% |
| COc1ccc(C(C)C)cc1S(=O)(=O)NCCCn1ccnc1 | 11.2% |
| Cc1ccccc1NS(=O)(=O)c1ccc2oc(=O)ccc2c1 | 15.4% |
| O=C(COc1ccc2c3c(c(=O)oc2c1)CCC3)N[C@@H](CSCc1ccccc1)C(=O)O | 8.31% |
| CCOC(=O)c1ccc(NC(=O)COc2coc(CN3CCc4ccccc43)cc2=O)cc1 | 8.2% |
| CC(=O)Nc1ccc(S(=O)(=O)NC2=NCN(c3ccc([N+](=O)[O-])cc3)CN2)cc1 | 17.9% |
| COc1ccc(C(=O)Nn2c(C)nc3ccccc3c2=O)c(OC)c1 | 8.7% |
| COc1cc(C(=O)Nc2cccc(-n3cnnn3)c2)cc(Cl)c1OC | 3.78% |
| [O-][n+]1c2c(nc3c1-c1ccccc1C3O)CCCC2 (centres unmarked) | 11.4% |
| CCc1ccc(/C(C)=N\Nc2ccc([N+](=O)[O-])cc2)cc1 | 6.85% |

| Structure (SMILES) | hERG current change (%, negative = inhibition) at 1uM |
| --- | --- |
| COCCOCCn1cnc2ccccc21 | 17.7% |
| Nn1c(COc2ccc(Cl)cc2)nc2ccccc2c1=O | 1.71% |
| COc1ccc(/C=C2/C(=N)N3N=C(CC(=O)N4CCCC4)SC3=NC2=O)cc1OC | 9.9% |
| CC(=O)Oc1ccc(C(=O)Nc2cccc(-c3nnc(-c4ccco4)o3)c2)cc1 | 4.65% |
| O=c1c2ccccc2nc2ccc(NCc3cccs3)nn12 | 9.37% |
| CCS(=O)(=O)c1ncc(Cl)c(C(=O)Nc2ccccc2OC)n1 | 17.5% |
| COc1cccc(-c2csc(N3CCN(C(=O)C4CCCCC4)CC3)n2)c1 | 2.38% |
| O=C1C(Cl)=C(N2CCCCCC2)C(=O)N1c1ccc(Br)cc1 | 12.4% |
| Cc1cc(C(=O)O)ccc1-n1c(C)cc(/C=C(/C#N)C(=O)Nc2ccccc2)c1C | 14.8% |
| COc1ccc(C2C(C(C)=O)=C(O)C(=O)N2c2ccc(Br)cn2)cc1 (centres unmarked) | 6.15% |
| COC(=O)c1cc(N=Nc2c(C)[nH]c3ccccc23)cc(C(=O)OC)c1 | 16.8% |
| CCCCNC(=O)/C(=C/c1ccco1)NC(=O)c1ccco1 | 14.2% |
| CCOc1ccc(-n2c(C)c(C(=O)OC)c3cc(O)ccc32)cc1 | 12.2% |
| CSc1ccccc1NC(=O)COC(=O)Cn1cc(C(F)(F)F)ccc1=O | 7.91% |
| O=C(/C=C/c1ccco1)N(Cc1cccc(Br)c1)C1CCS(=O)(=O)C1 (centres unmarked) | -8.58% |
| CN(C)S(=O)(=O)c1cccc(NC(=S)N(CCC#N)Cc2cccnc2)c1 | 5.18% |
| Cc1ccc(-c2nc3ccccc3o2)cc1NC(=S)NC(=O)c1cc2ccccc2o1 | 9.01% |
| O=C1c2ccccc2C(=O)C1c1nccc2ccccc12 | 18.1% |
| CCOc1ccc(S(=O)(=O)N2CCCC(C(=O)NCc3ccco3)C2)cc1 (centres unmarked) | 5.92% |
| COc1ccc(/C(O)=C2/C(=O)C(=O)N(CCCN3CCOCC3)C2c2ccc(N(C)C)cc2)cc1 (centres unmarked) | 9.36% |
| COc1nc(C)nc(NC(=O)NS(=O)(=O)c2ccccc2Cl)n1 | 12.3% |
| CCOc1ccccc1CN1CCNC(=O)C1CC(=O)NCc1cc(C)n(C)n1 (centres unmarked) | 15% |

| Structure (SMILES) | hERG current change (%, negative = inhibition) at 1uM |
| --- | --- |
| CCCCNC(=O)CCC(=O)Nc1ccc2nc(N3CCOCC3)cc(C)c2c1 | -0.214% |
| CCOC(=O)c1c(SCC(=O)Nc2nc(C)cs2)nc(=O)[nH]c1C | 13.4% |
| CN1C(C(=O)NCc2ccccc2)CC2Cn3c(nc4ccccc43)C21 (centres unmarked) | 6.79% |
| O=C(NS(=O)(=O)Nc1ccc(Cl)cc1)c1c[nH]c2ccccc12 | 11.9% |
| C=CCc1c(C)nc(SC)nc1Nc1ccc(C)cc1 | 7.54% |
| CCOC(=O)c1nn(-c2cccc(OC)c2)c2nc(Nc3ccccc3)cc(=O)n12 | 3.3% |
| CC(c1ccccc1)N1C(=O)c2cccnc2C1=O (centres unmarked) | 9.62% |
| COCC(=O)Nc1nnc(-c2ccc(C(C)(C)C)cc2)s1 | 5.84% |
| CCCCN1CC(O)=C(c2nc(-c3ccc(Br)cc3)cs2)C1=N | 10.6% |
| Cc1cccc(C(=O)NC(C(=O)Nc2nc(-c3ccccn3)cs2)C(C)C)c1 (centres unmarked) | 11.7% |
| COc1ccc(CC(=O)N2CCCc3ccccc32)cc1OC | 11.5% |
| CC(C)[C@H](N)C(=O)N1CCC(C(=O)N[C@@H](Cc2ccccc2)C(=O)NCc2ccc(F)cc2)CC1 | 19.5% |
| CCCCn1nnnc1NCc1cc(Cl)c(OC)c(OC)c1 | -3.6% |
| CC(=O)N1CCC(N(CCN2CCOCC2)C(=S)Nc2ccccc2C)CC1 | 16.2% |
| CN(C)c1nc(F)c(F)c(S(=O)(=O)c2ccccc2)c1F | 13.2% |
| NS(=O)(=O)c1ccc(N=Nc2c(-c3ccccc3)[nH]n(-c3nc(-c4ccccc4)cs3)c2=O)cc1 | 9.77% |
| C[C@@H]1NC(=O)c2cc([N+](=O)[O-])cc(I)c2NCCCC[C@@H](C(N)=O)NC(=O)[C@H](CCC(=O)O)NC1=O | -2.24% |
| O=C(Nc1nnc(-c2cccs2)o1)c1cc(-c2ccccc2)nc2ccccc12 | -0.0258% |
| Cc1ccc(S(=O)(=O)N(C)Cc2ccc(C(=O)N/N=C/c3ccc(OC(F)F)cc3OC(F)F)cc2)cc1 | 9.87% |
| Clc1nccnc1-c1ccccc1 | 9.54% |

Source: article PMC4336329 (PLoS ONE, 2015)
